In the supplement of paper PMC11417369:
± gives the standard deviation of the averaged measurements. The list shows a part of the results.

System: PfAP2-LT AP2 domain (GST-tagged)
Assay: gcPBM binding intensity (ln(normalized median fluorescence intensity)); higher = stronger DNA binding
Outline: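 After 1 h on an Agilent 4 × 180k array of primer-extended double-stranded 36-bp intergenic genomic probes and negative controls, bound GST-tagged P. falciparum DNA-binding domains were detected with Alexa488 anti-GST antibody and scanned at 488 nm. The domains had been expressed in E. coli, and binding took place in 1× PBS with 1% milk, 0.2 mg/ml BSA, 0.5% salmon testes DNA and 0.03% Triton X-100. Binding intensity is the highest Masliner-normalised natural-log median intensity across replicate spots of either probe orientation.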

Row | Sequence | gcPBM binding intensity (ln)
1 | CGCATAAAGACAAGAACACACATATATATTGTAGTA [CACACA_site5938] | 9.01 ± 0.39
2 | CAACAACAAAAAAAAAAATAATAATAATAAAAAATA [TGCATGCA_negctrl_site271] | 8.71 ± 0.5
3 | TTCCTATTTCCTATGTGTACTTATAAATAAGTGTCT [XGTACX_site3725] | 8.88 ± 0.54
4 | GAAATTATAAATTGGACACACACATAAAAAATATGT [CACACA_site7957] | 9.31 ± 0.38
5 | TCCGCATGTACATGGGTGCACATAACACCCATTTAA [GTGCAC_site9881] | 8.66 ± 0.43
6 | TAAATGTCTGTTAATGCACACGATATGTCTATATAT [CACACA_site2352] | 9.11 ± 0.36
7 | CTTTCTATATAAAATCGTACATATATAATATTATAT [XGTACX_site5807] | 8.62 ± 0.4
8 | TATATTAAGAAACACACACACATATATATATATATA [CACACA_site1609] | 9.82 ± 0.23
9 | ATTTTTACATAGGAAGCATGCATATTTTAAAAATAA [TGCATGCA_site1046] | 8.52 ± 0.4
10 | CTAACACTAATTTTTTGTACACAATATGTAAATAAA [XGTACX_site6424] | 8.64 ± 0.4
11 | CATGTGTTCTATATTTATGTCTAACTTTTTAATTAA [CACACA_negctrl_site904] | 8.64 ± 0.46
12 | TTATTTCTGAATATTTTTTTTTTTTCTTCTTTTTTA [CACACA_negctrl_site815] | 8.21 ± 0.57
13 | TAATTTTTTAAATTTAAACACACATTTTGTATATGT [CACACA_site8479] | 8.98 ± 0.47
14 | TATATATATATATATTGTACGAACCTTTTTTTTTTT [XGTACX_site4169] | 9.28 ± 0.56
15 | TGATACGTATTTATTTCACACACGTTAAAAAAATAA [CACACA_site3914] | 8.74 ± 0.34
16 | TATAAATTTTTATTTACATGCAGTTATTATTTCCAT [TGCATGCA_site41] | 8.87 ± 0.41
17 | AATAATAAATAAAAATGTACACATACATTTCTATCC [XGTACX_site7057] | 8.71 ± 0.46
18 | TTTTTGTTACCTATTGTGCACTTCATATAAATTAAA | 8.79 ± 0.45
19 | TATTAAAAGGTTAAAGCATGCATACATATATATGTT [TGCATGCA_site865] | 8.79 ± 0.41
20 | ATATATATATATATATGTACATATTTATATTGTAAA [XGTACX_site8878] | 9.39 ± 0.028
21 | TAATGTAATACATATTGTACACATACATATATATTT [XGTACX_site7531] | 8.77 ± 0.47
22 | ATATATAATCATCACACATGCAGCCCTGATGAAAAA [TGCATGCA_site687] | 9.02 ± 0.25
23 | GGGTATACCAATATAACACACATATATCTATAATAT [CACACA_site6348] | 9.15 ± 0.46

Row | Sequence | gcPBM binding intensity (ln)
24 | TTGAATATGGTTACATGTACGTATCAATATTTTTTA [XGTACX_site4247] | 8.56 ± 0.42
25 | AATTGTGCATTATATTGTACACGTGTTGTATATATT [XGTACX_site975] | 9.18 ± 0.33
26 | TATATAAAACATGGGTGTACCAACATAAATCATATA [XGTACX_site2320] | 8.87 ± 0.49
27 | ATTTTGTTATGAAACACACACATATAAATATAAATA [CACACA_site7679] | 8.91 ± 0.33
28 | AATACACGCAGACACACACACAAAAAAAAAAAAAAA [CACACA_site6384] | 9.53 ± 0.61
29 | ATATATATATATAGTTGTACTTAATTTTATATGTTA [XGTACX_site5256] | 9.28 ± 0.33
30 | TGTTGTATATCTCTATATAGCTATATTGTATATATA [TGCATGCA_negctrl_site323] | 8.96 ± 0.42
31 | TATATTATTTATTAGACACACATTATTAAAATATTT [CACACA_site4737] | 8.58 ± 0.44
32 | TTTTACAAATATTACTGTACACATTTTCATATAATT [XGTACX_site17] | 8.81 ± 0.53
33 | AAACTTATAAAAAGTAGTACCATAAAATAATACATA [XGTACX_site6523] | 8.78 ± 0.49
34 | CCTTGATATATATAAAGTACATATATATATATATAT [XGTACX_site4325] | 9.23 ± 0.55
35 | GTGAAATTATTTCCGTGTACACATAAATATATATTT [XGTACX_site3989] | 8.91 ± 0.42
36 | TATACATTATTATTATGTACTTAAATATATATTATA [XGTACX_site5173] | 8.53 ± 0.31
37 | ATTAACACATTTAAGTGTACATATATAAATATATAT [XGTACX_site7098] | 8.76 ± 0.45
38 | GAAACAAAATTATTTTGTACATATGACTGTAGATAT [XGTACX_site972] | 8.87 ± 0.36
39 | GGAACGTATATTTTCACACACTCTCAAAAGTACAAG [CACACA_site2301] | 9.05 ± 0.42
40 | ATATAACTCAAGGGCACACATATACCTTTCCTTTTT [CACACA_site4390] | 9.07 ± 0.42
41 | TGTGCACGTTCTGTGACACACATTTAAATGTGCTTA [CACACA_site176] | 8.96 ± 0.45
42 | AAAGAAGGATAATAATGTACAAGCAAAAAAATAAAA [XGTACX_site466] | 8.96 ± 0.53
43 | AATATGTGAATATAATCACACACAATACGGAAACAC [CACACA_site8875] | 9.84 ± 0.29
44 | AAATAATTATTTATCACACATATGTATTTATATATA [CACACA_site4589] | 8.8 ± 0.4
45 | CTTTTTTTAATGATAACACACATGTTGTGCATAGAC [CACACA_site3270] | 9.04 ± 0.42
46 | TTAGTTTCCCAAATATGTACATAAATATAAATCATA [XGTACX_site2746] | 8.52 ± 0.38

Row | Sequence | gcPBM binding intensity (ln)
47 | ATTTCAACAAATATAACACACAATGGATAAGAATAA [CACACA_site1974] | 8.96 ± 0.43
48 | GTAAGAACACTTTTGTGGTTACTTAAAAGTGTATAT [GTGCAC_negctrl_site422] | 8.68 ± 0.39
49 | TTATTATTTTTTAACACACACATATATATTATATCT [CACACA_site4906] | 9.17 ± 0.47
50 | TGCTTATATGTTGTTACACACTAAAATAGTTAGATA [CACACA_site1277] | 8.68 ± 0.33
51 | AATACAGTTAGAGAAAGTACACAACTAATATACATA [XGTACX_site8814] | 8.88 ± 0.57
52 | AACATATATATAATATGTACATAATATATATAAATG [XGTACX_site1161] | 8.91 ± 0.43
53 | ACATATATTTCAAAGTGTACGCACAATTTTTTTTAC [XGTACX_site6166] | 8.87 ± 0.45
54 | AGTGTTAAAAATGAGGGTACATATAAAATACAGTTC [XGTACX_site457] | 8.98 ± 0.4
55 | TAATCATTTTAGCTTACACACAAAATTTGGTTATAA [CACACA_site5604] | 8.78 ± 0.35
56 | ACAGGATTGGTTCAAACACACATATTATATGACTAT [CACACA_site4536] | 9.04 ± 0.39
57 | TATTTTAATTAATATACACACGCTTATATATATATA [CACACA_site7909] | 8.84 ± 0.45
58 | TATTATATATATAACTGTACGTTTATAATATAAAAA [XGTACX_site3778] | 8.32 ± 0.38
59 | TTTCTTTTTTTTTTTTGTACATATTTTAATTATTTT [XGTACX_site8676] | 8.66 ± 0.67
60 | TACAAACTATGATGCACACATATATATCTGTATCCA [CACACA_site4809] | 9.17 ± 0.41
61 | ATTATGTTATATACACGTACGTGTGCTTTATAATTA [XGTACX_site2728] | 9.13 ± 0.37
62 | GGAATTATAATAAATGGTACACATAAAAAAAAAAAA [XGTACX_site8343] | 8.73 ± 0.61
63 | TACTTTACTAATATATATAGGAGAGTATACATGAAA [CACACA_negctrl_site63] | 8.52 ± 0.49
64 | ATAAAGTAGATATTTTGTACGCAGGTTGTATATATT [XGTACX_site1464] | 8.85 ± 0.42
65 | TAATAAATAGGACACACACACATATATATATATTAT [CACACA_site4891] | 9.73 ± 0.16
66 | CATATATAAATATGTATGCACTTTAACAAAATGTAT | 8.63 ± 0.4
67 | ATTCCACCTTAAAACTGTACTTTCTCAATCTTTTAT [XGTACX_site796] | 8.8 ± 0.52
68 | ATATTTATTTATATGTGTACTTATGTTTATATAAAA [XGTACX_site4250] | 8.65 ± 0.42
69 | GGAATAATAAAATTATGTACATAAGAATCATATACT [XGTACX_site6810] | 8.96 ± 0.57

Row | Sequence | gcPBM binding intensity (ln)
70 | ATATATACTTATATTTGTACACAAAGGTATCTCTAG [XGTACX_site3805] | 8.73 ± 0.49
71 | AAATAATACCAAATGTGTACTTATTTCACTAATAGA [XGTACX_site7571] | 8.72 ± 0.48
72 | AAGCTTTGGTGTTATGCATGCAATTAAACTATTAGT [TGCATGCA_site277] | 8.79 ± 0.23
73 | AATAATATATAATAATGTACAAAAAAAAAAAAAAAA [XGTACX_site4158] | 8.64 ± 0.49
74 | TTTTATTTTTTAGTAGTACACACTTTTTGTACCTTT [CACACA_site599] | 8.95 ± 0.46
75 | CAAACAAACGGACACACACACACACCCAAAAATGAT [CACACA_site5363] | 10.1 ± 0.18
76 | AAAAAAAAAAATCGCTGTACTTCTAAAGGTGTGTTA [XGTACX_site843] | 8.73 ± 0.49
77 | AGTTTTATATAAGCTTGTACTTAATATTATTAAGTA [XGTACX_site5919] | 8.64 ± 0.37
78 | ACGGACTTAAAATACACACACACCAAAAAAAAAAAA [CACACA_site7304] | 9.59 ± 0.3
79 | TTTGATAAATTATACACACACAATATATATAAAATA [CACACA_site2023] | 9.21 ± 0.31
80 | ATAATTTGATGGTTAACACACATATAGATTATAGAT [CACACA_site7200] | 8.96 ± 0.41
81 | TTTTTTTCTTTTTGAGGTACGCATTATTTTATTTGT [XGTACX_site6996] | 8.63 ± 0.67
82 | TGTTATATTTCAAATTGTACTAATCTAATTAATAAA [XGTACX_site604] | 8.1 ± 0.46
83 | TTATTATATATATCTCGTACGTGTATACGCCTACCA [XGTACX_site8375] | 8.89 ± 0.6
84 | AAACAATTACACATATGTATGTATATATATATATAT [TGCATGCA_negctrl_site536] | 9.49 ± 0.014
85 | ACAAAGTTTATAGAACGTACATACTTACACATATTT [XGTACX_site556] | 8.83 ± 0.57
86 | AAAAAAATGAAACACACACACACATATATATATATA [CACACA_site1043] | 10.1 ± 0.085
87 | ATTTAAAAAAGAAAGGTGCATTTCAATAATGTAAAA [GTGCAC_site9585] | 8.49 ± 0.52
88 | TCATCTTTTATATGTTGTACGTATTTTCATTTATAT [XGTACX_site4855] | 9.09 ± 0.52
89 | TTGATATTTTTTTTATGTACACATGTTCATATTTTT [XGTACX_site8095] | 8.9 ± 0.42
